How the values were obtained:
H3.3.K27M-specific TCR = details: peptide loaded on T2 cells, FIG. 8B
HLA-A2 on T2 cells = test: T2 cell A2-binding assay (surface HLA-A2 stabilisation, MFI); details: peptide co-incubated with T2 cells
Method: FIG. 1. Identification of a HLA-A ? -restricted epitope in H3.3 with the K27M mutation. A. HLA-A201 binding ability of H3.3-derived peptides was analyzed by T2 cell A2-binding assay. Cap1-6D is an altered peptide ligand, which has been derived from an epitope in human carcinoembryonic Ag, CEA605-613 and was used as positive control.
We next directly evaluated relative binding affinity of these peptides using the transporter associated with antigen processing (TAP)-deficient HLA-A* ? + T2 cell line. Since stable binding of HLA-A ? with peptide epitopes further stabilizes the surface expression of HLA-A ? , quantitative expression levels of HLA-A ? correlate with the binding affinity of the peptide-epitopes that are co-incubated with the T2 cells (FIG. 1). The MFI values for T2 cells with no peptide indicate the baseline HLA-A2 expression level. Cap6D is a well-documented HLA-A ? -binding epitope and used as a positive control for the assay. […] To precisely measure the binding of peptides to HLA-A ? class I molecules, we performed a competitive binding inhibition assay, and evaluated the concentration of peptide yielding 50% inhibition of the binding of the radiolabeled probe peptide (IC50).

[1] = system: purified HLA-A2 class I molecules; test: Competitive binding inhibition assay with purified HLA-A2 and radiolabeled probe peptide
Method: We next directly evaluated relative binding affinity of these peptides using the transporter associated with antigen processing (TAP)-deficient HLA-A* ? + T2 cell line. Since stable binding of HLA-A ? with peptide epitopes further stabilizes the surface expression of HLA-A ? , quantitative expression levels of HLA-A ? correlate with the binding affinity of the peptide-epitopes that are co-incubated with the T2 cells (FIG. 1). The MFI values for T2 cells with no peptide indicate the baseline HLA-A2 expression level. Cap6D is a well-documented HLA-A ? -binding epitope and used as a positive control for the assay. […]
HLA-peptide binding assays. Quantitative assays to measure the binding of peptides to purified HLA ? class I molecules are based on the inhibition of binding of a radiolabeled standard peptide (HBV core 18-27 analog, […] (SEQ ID NO:20)), and were performed as detailed elsewhere (J. Sidney, S. Southwood, C. Moore, C. Oseroff, C. Pinilla, H. M. Grey, A. Sette, Curr Protoc Immunol Chapter 18, Unit 18 13 (2013)). […] Under the conditions used, where [radiolabeled probe]<[MHC] and IC50≥[MHC], the measured IC50 values are reasonable approximations of the true Kd values (K. Gulukota, J. Sidney, A. Sette, C. DeLisi, J Mol Biol 267, 1258-1267 (1997); Y. Cheng, W. H. Prusoff, Biochemical Pharmacology 22, 3099-3108 (1973)).

Sequence | IL-2 production by TCR-transduced J.RT3-T3.5 cells (recognition by the TCR) (H3.3.K27M-specific TCR) | also measured
XMSAPSTGGV [Cit H3.3] | completely abrogates IL-2 production | 
RMSAPATGGV [Mut H3.1] | failed to recognize | 
RMSAPSTGGV [H3.3.K27M (26-35)] |  | mean fluorescence intensity (MFI) of HLA-A2 on T2 cells (HLA-A2 on T2 cells): peptide-dose-dependent increase of mean fluorescence intensity
RKSAPSTGGV [H3.3.Non-M (26-35), non-mutant counterpart of H3.3 positions 26-35, reference compound] |  | binding capability relative to the mutant H3.3.K27M peptide (fold lower) [1]: > 30 fold
